Measurements from PubChem BioAssay AID504333 (National Center for Advancing Translational Sciences (NCATS), 2011).
Hit rate of the full screen: of about 360,000 compounds, about 16,000 (4.4%) were called active. Inconclusive means that the source gave no clear call. Such entries were picked first, then a sample of the others. Calls follow the shape of the dose curve; as a rule, active = well fitted inhibition curve with a large enough effect; inconclusive = small, poorly fitted or top-dose-only effect; inactive = no such curve, though single readings can be large or run the other way. Potencies beside an inconclusive call are fits to weak or partial responses and may not hold up.

Biological target: Bromodomain adjacent to zinc finger domain protein 2B (Homo sapiens) (UniProt Q9UIF8)
Test: qHTS Assay for Inhibitors of BAZ2B; also: nearly all actives have a fitted effect of over 60% in size
Conditions: AlphaScreen BAZ2B-H3K14Ac peptide displacement; series mostly up to 114 µM
Outline: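 AlphaScreen displacement: compounds (up to 110uM) incubated 30 min at room temperature with a preformed 50 nM BAZ2B/50 nM biotinylated H3K14Ac peptide complex in PBS pH 7.4 with Tween-20. Donor and acceptor beads at 10 ug/mL final added, 20 min light-protected before reading.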
Potency is read from the fitted curve at half-maximal effect; tags tell the direction and shape of the fitted curve.

Chain of UniProt Q9UIF8 (Q9UIF8 whole entry, looked up, the tested form may be a part): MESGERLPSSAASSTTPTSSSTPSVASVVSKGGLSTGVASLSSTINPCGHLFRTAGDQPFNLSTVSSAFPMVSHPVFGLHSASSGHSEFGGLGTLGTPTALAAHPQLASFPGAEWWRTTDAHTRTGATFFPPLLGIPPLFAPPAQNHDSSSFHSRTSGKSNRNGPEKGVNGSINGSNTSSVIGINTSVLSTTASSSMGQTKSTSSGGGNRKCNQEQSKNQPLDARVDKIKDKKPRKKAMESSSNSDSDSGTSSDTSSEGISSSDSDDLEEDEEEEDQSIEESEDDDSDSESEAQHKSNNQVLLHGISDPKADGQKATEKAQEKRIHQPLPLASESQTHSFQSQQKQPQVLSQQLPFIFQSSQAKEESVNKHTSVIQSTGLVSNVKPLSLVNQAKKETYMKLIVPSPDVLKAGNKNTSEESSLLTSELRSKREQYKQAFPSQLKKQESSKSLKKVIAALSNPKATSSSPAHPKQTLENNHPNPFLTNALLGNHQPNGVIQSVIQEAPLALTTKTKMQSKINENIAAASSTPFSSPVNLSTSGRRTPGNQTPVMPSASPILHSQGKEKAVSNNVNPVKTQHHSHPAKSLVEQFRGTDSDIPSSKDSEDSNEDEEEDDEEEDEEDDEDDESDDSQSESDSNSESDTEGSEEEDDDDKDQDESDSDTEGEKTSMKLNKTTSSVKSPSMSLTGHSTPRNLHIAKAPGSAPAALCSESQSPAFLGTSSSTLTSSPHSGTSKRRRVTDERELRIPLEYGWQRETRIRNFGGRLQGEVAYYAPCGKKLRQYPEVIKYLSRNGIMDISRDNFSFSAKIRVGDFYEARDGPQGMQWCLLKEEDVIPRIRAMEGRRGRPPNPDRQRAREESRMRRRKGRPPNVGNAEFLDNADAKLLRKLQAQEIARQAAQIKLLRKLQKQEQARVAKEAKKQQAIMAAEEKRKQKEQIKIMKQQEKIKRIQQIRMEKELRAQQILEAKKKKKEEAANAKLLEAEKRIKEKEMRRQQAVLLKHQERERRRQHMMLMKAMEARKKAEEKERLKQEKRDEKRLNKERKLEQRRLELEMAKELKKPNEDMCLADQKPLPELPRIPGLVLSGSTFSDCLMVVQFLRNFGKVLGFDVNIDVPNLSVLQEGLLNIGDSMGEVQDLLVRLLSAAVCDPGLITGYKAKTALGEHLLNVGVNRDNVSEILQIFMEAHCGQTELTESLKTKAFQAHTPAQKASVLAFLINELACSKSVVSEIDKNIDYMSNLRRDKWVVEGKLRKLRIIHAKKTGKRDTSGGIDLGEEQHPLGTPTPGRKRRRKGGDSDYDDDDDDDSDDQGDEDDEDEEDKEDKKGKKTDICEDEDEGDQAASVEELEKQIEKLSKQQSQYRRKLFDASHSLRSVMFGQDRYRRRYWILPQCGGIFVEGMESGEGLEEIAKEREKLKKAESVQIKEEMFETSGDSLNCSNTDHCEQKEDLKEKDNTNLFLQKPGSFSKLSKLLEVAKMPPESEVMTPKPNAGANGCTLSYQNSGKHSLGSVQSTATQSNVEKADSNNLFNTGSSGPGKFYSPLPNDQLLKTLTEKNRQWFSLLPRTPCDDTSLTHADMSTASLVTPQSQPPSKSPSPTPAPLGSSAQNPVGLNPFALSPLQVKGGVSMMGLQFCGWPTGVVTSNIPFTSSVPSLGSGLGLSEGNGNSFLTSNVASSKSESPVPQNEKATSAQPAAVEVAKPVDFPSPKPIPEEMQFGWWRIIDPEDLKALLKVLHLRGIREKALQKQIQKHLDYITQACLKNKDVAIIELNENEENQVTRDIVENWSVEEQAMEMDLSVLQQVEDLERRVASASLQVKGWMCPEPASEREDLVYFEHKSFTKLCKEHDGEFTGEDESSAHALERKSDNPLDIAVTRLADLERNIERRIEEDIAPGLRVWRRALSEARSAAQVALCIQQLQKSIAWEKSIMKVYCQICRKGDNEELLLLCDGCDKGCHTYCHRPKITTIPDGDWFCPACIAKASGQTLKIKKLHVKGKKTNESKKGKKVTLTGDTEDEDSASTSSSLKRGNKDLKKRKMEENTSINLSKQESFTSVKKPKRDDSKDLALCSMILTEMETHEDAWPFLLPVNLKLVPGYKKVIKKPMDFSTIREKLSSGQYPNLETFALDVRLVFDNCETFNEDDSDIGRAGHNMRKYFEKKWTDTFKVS

Structure (SMILES) | Potency
O=[N+]([O-])c1ccccc1NC1CCN(Cc2ccccc2)CC1 | active: 39.8 µM
O=[N+]([O-])c1cc(-c2ncccn2)c([N+](=O)[O-])s1 | inconclusive: 89.1 µM [inhibitor, single point]
O=C/C(=C\Nc1ccc(S(=O)(=O)CCO)cc1)c1nc2cc(Cl)ccc2o1 | inactive
Nn1c(Nc2ccccc2)nc2sc3c(c2c1=O)CCC3 | inconclusive: 89.1 µM [inhibitor, single point]
CCOC(=O)c1c(CC(C)C)csc1N | inconclusive: 56.2 µM [inhibitor, partial curve]
CCOc1ccc(Cc2onc3c2C(=O)CC(C)(C)C3)cc1OCC | inactive
Cc1cc(Cl)c2oc(C(=O)N3CCN(c4cccc(C)n4)CC3)c(C)c2c1 | inconclusive: 56.2 µM [inhibitor, partial curve]
Cc1ccccc1OCCSc1nc2ccc(NC(=O)c3cccc(F)c3)cc2s1 | inactive
CN(C)CCCNc1cc(N2CCN(C3CCCCC3)CC2)c2noc3c2c1C(=O)c1ccccc1-3 | active: 20 µM
COc1cc2ncc3c(-c4ccc(C)cc4)nn(-c4ccc(F)cc4F)c3c2cc1OC | inactive
COc1ccc(Cn2ccnc2SCC(=O)Nc2nc3ccccc3s2)cc1 | inconclusive: 44.7 µM [inhibitor, partial curve]
N#Cc1cccc2c1-c1ccccc1/C2=N/NC(N)=S | inconclusive: 12.6 µM [inhibitor, partial curve]
COc1ccc(NC(=S)NC2CCCCCC2)c(OC)c1 | inconclusive: 44.7 µM [inhibitor, partial curve]
COc1ccc(Nc2nc3ccc(OC)cc3s2)cc1 | active: 56.2 µM
C#CCOCCOCCOCCNc1nc(N2CCN(C(=O)[C@H](Cc3ccc(O)cc3)n3cc([C@@H](N)C(C)CC)nn3)CC2)nc(N2CCN(C(=O)[C@H](Cc3cc4ccccc4[nH]3)n3cc([C@@H](N)Cc4ccc(O)cc4)nn3)CC2)n1 (some centres undefined) | active: 31.6 µM
NC(=O)CC(NC(=O)c1ccccc1)c1ccc(N2CCCCCCC2)c([N+](=O)[O-])c1 (centres undefined) | inconclusive: 44.7 µM [inhibitor, partial curve]
C/C(=N\NC(=O)c1ccc(OC2CCCC2)cc1)c1ccc(O)cc1 | inactive
O=C(C1CCCN(S(=O)(=O)c2cccc3nonc23)C1)N1CCC(Cc2ccccc2)CC1 (centres undefined) | inconclusive: 79.4 µM [inhibitor, single point]
O=S(=O)(c1ccc(Br)cc1)c1nc(-c2ccccc2)oc1N1CCOCC1 | inconclusive: 22.4 µM [inhibitor, partial curve]
Cc1[nH]c(=O)[nH]c(=O)c1S(=O)(=O)N1CCCC(C(=O)NCCc2ccccc2)C1 (centres undefined) | inactive
CCOC(=O)CN1C(=O)C(O)=C(C(C)=O)C1c1ccc(F)cc1 (centres undefined) | active: 70.8 µM
Oc1c(C(c2ccccn2)N2CCOCC2)ccc2cccnc12 (centres undefined) | active: 3.16 µM
CCCCC(CCC(=O)O)(C(=O)OCC)c1csc(Nc2ccc(OCC)cc2)n1 (centres undefined) | inconclusive: 50.1 µM [inhibitor, partial curve]
COc1ccc(Nc2ncc3c(n2)CCN(Cc2ccccc2C)C3)c(OC)c1 | inconclusive: 28.2 µM [inhibitor, partial curve]
Cc1ccccc1C(=O)N1CCN(c2ccc(NC(=O)c3ccccc3[N+](=O)[O-])cc2)CC1 | inconclusive: 89.1 µM [inhibitor, single point]

Structure (SMILES) | Potency
COC(=O)c1cc2oc(C)cc2n1Cc1ccc(Br)cc1F | inconclusive: 50.1 µM [inhibitor, partial curve]
O=C(NN=C1CCCC1)c1cc(O)cc(O)c1 | active: 79.4 µM
CC1CN(C(=O)c2ccc(OC3CCN(Cc4ccccn4)CC3)cc2)CCN1C (centres undefined) | inconclusive: 89.1 µM [inhibitor, single point]
CCC(Oc1ccccc1-c1nnc(-c2ccccc2)o1)C(=O)Nc1ccc(C(C)=O)cc1 (centres undefined) | inconclusive: 89.1 µM [inhibitor, single point]
COC(=O)c1ccc(NC(=O)CSc2ccc(-c3sc(-c4ccccc4)nc3C)nn2)cc1 | inactive
CCOC(=O)c1cc2c(ccn2C)n1CC(=O)N1CCN(c2ccccc2OC)CC1 | inconclusive: 50.1 µM [inhibitor, partial curve]
Oc1ccc(COc2cccc3ccccc23)c2cccnc12 | active: 56.2 µM
O=C(NCc1ccccc1)c1cccc(COc2ccc3c(c2)CCC3)c1 | inactive
CCOC(=O)c1c(C)[nH]c(C)c1S(=O)(=O)NCc1ccccc1C | inconclusive: 25.1 µM [inhibitor, partial curve]
COc1ccc(-c2cc(=O)oc3cc(OC(C)C(=O)NCCCn4ccnc4)ccc23)cc1 (centres undefined) | inconclusive: 79.4 µM [inhibitor, single point]
COc1ccccc1-n1cnnc1SCC(=O)Nc1ccccc1 | inactive
CCC(C)/C(C)=N/NC(=O)CSc1nc2ccccc2[nH]1 (centres undefined) | inactive
CN1C(=O)N(C)c2cccc3cccc1c23 | inactive
CN(C(=O)Cn1nnc2ccccc2c1=O)C1CCCCC1 | inactive
Cc1ccc(C)c(NC(=O)n2ncc3cc(Cl)ccc32)c1 | inactive
CC1CCC2C(=O)N(c3ccc(C(=O)Oc4cccc5cccnc45)cc3)C(=O)C2C1 (centres undefined) | active: 50.1 µM
COC(=O)c1cc(NC(=O)c2ccccc2)c(=O)oc1C/C=N\OCc1ccc(Cl)cc1Cl | inactive
Cc1nc2ccccc2c(=O)n1/N=C/c1ccc(F)cc1 | inactive
Cc1nn(Cc2ccc(F)cc2)c(C)c1NC(=O)CCCn1nc([N+](=O)[O-])cc1C | inactive
COc1ccc(Cl)cc1N1C(=O)c2cccnc2C1=O | inconclusive: 70.8 µM [inhibitor, single point]
O=C(CCC1CCCC1)N1CCC(N2CCN(c3ccccc3)CC2)CC1 | active: 31.6 µM
Cc1cc(SCC(N)=O)nc(SCC(=O)c2ccccc2)n1 | inactive
N=C(N)SCc1cn(-c2ccccc2)nc1-c1ccc(Br)cc1 | inactive
Fc1ccc(N2CCN(Cc3cn[nH]c3-c3ccccc3)CC2)cc1 | inactive
